# Data from the supplement of paper PMC5655136.
# Values come from read counts of a selection and are noisy.
# Tested on: NB7
# Experiment: fold depletion of shRNA, plasmid library share / infected cells without Dox share (9 days) (ratio); higher = more depleted after infection (more toxic, leaky expression from a Tet-inducible vector; NB7 is a neuroblastoma line without caspase-8)
# Settings: shRNA pool: CD95L ORF + CD95L 3'UTR + Venus libraries
# 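Further: shRNA barcodes quantified by deep sequencing of PCR amplicons from cellular DNA, counts expressed as percent of each subpool, ratio averaged over two biological duplicates.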
row,Sequence,fold depletion of shRNA
1,CGTGACCACCCTGGGCTACGG,1.46
2,CGTGACCGCCGCCGGGATCAC,0.764
3,CGTGCAGCTCGCCGACCACTA,0.738
4,CGTGCCCTGGCCCACCCTCGT,2.56
5,CGTGCTGCTGCCCGACAACCA,0.754
6,CGTGTCCGGCGAGGGCGAGGG,0.912
7,CTAAAGAGAGAATGTAGATAT,0.581
8,CTAAAGAGGCTGAAAGAGGCC,1.17
9,CTAACACAGCATGTGTATTTC,0.618
10,CTAACAGATAAGCAAGAGAGA,0.749
11,CTAAGTATCCCCAGGATCTGG,1.01
12,CTAATAGTGCTTAAAAATCAT,0.75
13,CTAATGATGTTTTCCTATAAT,0.574
14,CTAATGTTTATGAGCCAGACA,2.07
15,CTACAACAGCCACAACGTCTA,3.68
16,CTACAAGACCCGCGCCGAGGT,2.03
17,CTACACTCATCTTAGTGCCTG,1.92
18,CTACATGAGGAACTCTAAGTA,0.505
19,CTACCACCTCCGCCGCCGCCG,0.0637
20,CTACCAGCAGAACACCCCCAT,1.33
21,CTACCAGCCAGATGCACACAG,0.498
22,CTACCAGGTGTTCTACACTCA,1.87
23,CTACCAGTCCGCCCTGAGCAA,0.484
24,CTACCCCGACCACATGAAGCA,1.93
25,CTACCTCAAGGGGGACTGTCT,0.639
26,CTACCTGAGCTACCAGTCCGC,1.48

row,Sequence,fold depletion of shRNA
1,CTACCTGGGGGCAGTGTTCAA,1.06
2,CTACGGCAAGCTGACCCTGAA,1.29
3,CTACGGCCTGCAGTGCTTCGC,0.949
4,CTACGTCCAGGAGCGCACCAT,2.28
5,CTACTAATGATGTTTTCCTAT,0.606
6,CTACTGCACTACTGGGCAGAT,2.67
7,CTACTGGGCAGATGTGGGCCC,9.1
8,CTAGAGGCTTGCATAATAAGC,0.364
9,CTATAATATAATAAATATTTA,0.879
10,CTATATCACCGCCGACAAGCA,1.03
11,CTATGGAATTGTCCTGCTTTC,0.658
12,CTCAACTCACCTAATGTTTAT,0.902
13,CTCACCTAATGTTTATGAGCC,0.499
14,CTCACCTCTCAAGGTGGGCCT,1.58
15,CTCAGACGTTTTTCGGCTTAT,2.14
16,CTCATCTTAGTGCCTGAGAGT,1.75
17,CTCATTTCATTCCTAACACAG,2.77
18,CTCCACTACCGCTGCCACCCC,1.28
19,CTCCAGGCACAGTTCTTCCCT,1.52
20,CTCCGAGAGTCTACCAGCCAG,3.73
21,CTCCTCAACTCACCTAATGTT,8.78
22,CTCCTTGTGATGTTTTTCATG,0.998
23,CTCGCCGACCACTACCAGCAG,0.745
24,CTCGTGACCACCCTGGGCTAC,1
25,CTCTAAGTATCCCCAGGATCT,3.43
26,CTCTAATAGTGCTTAAAAATC,0.646

row,Sequence,fold depletion of shRNA
1,CTCTCAAGGTGGGCCTTGCTA,1.74
2,CTCTCCCTGGGCCCCTCCAGG,4.71
3,CTCTCGGCATGGACGAGCTGT,1.44
4,CTCTCTCTGGTCAATTTTGAG,0.907
5,CTCTCTGGTCAATTTTGAGGA,1.13
6,CTCTGGGCTGCCATGTGAAGA,0.824
7,CTCTGGTCAATTTTGAGGAAT,1.82
8,CTCTGTGCCCAGAAGGCCTGG,1.03
9,CTCTTCCACCTACAGAAGGAG,1.15
10,CTGAAAAAAAGGAGCTGAGGA,1.44
11,CTGAAAGAGGCCAATGCCCCA,1.15
12,CTGAAGAAGAGAGGGAACCAC,0.722
13,CTGAAGCTGATCTGCACCACC,0.791
14,CTGAAGGGCATCGACTTCAAG,0.918
15,CTGACAATCAACTCTAATAGT,2.09
16,CTGACCCTGAAGCTGATCTGC,1.53
17,CTGAGAGTATTTAGGCAGATT,1.85
18,CTGAGCAAAGACCCCAACGAG,1.22
19,CTGAGCCACAAGGTCTACATG,0.265
20,CTGAGCCATCGGTGAAACTAA,3.5
21,CTGAGCTACCAGTCCGCCCTG,0.64
22,CTGAGCTCTCTCTGGTCAATT,1.39
23,CTGAGGAAAGTGGCCCATTTA,3.56
24,CTGAGGATTTAAGGGATGGAA,0.51
25,CTGATCATTTATATGTCAACG,0.78

# Same assay, conditions: shRNA pool: CD95 ORF + CD95 3'UTR + Venus libraries
row,Sequence,fold depletion of shRNA
1,CGTGACCACCCTGGGCTACGG,2.04
2,CGTGACCGCCGCCGGGATCAC,0.82
3,CGTGCAGCTCGCCGACCACTA,0.6
4,CGTGCCCTGCCAAGAAGGGAA,1.01
5,CGTGCCCTGGCCCACCCTCGT,1.22
6,CGTGCTGCTGCCCGACAACCA,1.57
7,CGTGTCCGGCGAGGGCGAGGG,1.32
8,CGTTTAAATATCTTTGAAAGT,0.652
9,CTAAACTTTGTTTATAACTCT,0.738
10,CTAAAGAACTTCCATTTATGG,0.754
11,CTAAATTACCTCTGATAATTC,0.63
12,CTAACATATGATTCTGTAGTA,0.794
13,CTAACCCCACTCTATGAATCA,3.26
14,CTAACTGCTCTCAGAGAAAGT,1.05
15,CTAAGATTTAAGATTCTCCTT,0.688
16,CTAAGTACCCAAATAGGAGTG,1.45
17,CTAAGTCAAGTTAAAGGCTTT,0.794
18,CTAATTGTTTGGGTGAAGAGA,2.54
19,CTACAAATGGCAGCTTATACA,1.43
20,CTACAACAGCCACAACGTCTA,2.82
21,CTACAAGACCCGCGCCGAGGT,0.621
22,CTACAGTTGAGACTCAGAACT,0.587
23,CTACCAGCAGAACACCCCCAT,0.967

row,Sequence,fold depletion of shRNA
1,CTACCAGTCCGCCCTGAGCAA,1.17
2,CTACCCCGACCACATGAAGCA,1.7
3,CTACCTACTTCTTTCTCAGGC,1.42
4,CTACCTCTGGTTCTTACGTCT,1.76
5,CTACCTGAGCTACCAGTCCGC,1.6
6,CTACGGCAAGCTGACCCTGAA,0.685
7,CTACGGCCTGCAGTGCTTCGC,0.535
8,CTACGTCCAGGAGCGCACCAT,1.17
9,CTACGTTTAAATATCTTTGAA,1.32
10,CTACTATCCTACGTTTAAATA,0.728
11,CTACTGTATGTGAACACTGTG,1.64
12,CTACTTCTTTCTCAGGCATCA,2.36
13,CTAGAGATTTTACCATATTTC,1.03
14,CTAGAGCTTTGCCACCTCTCC,0.714
15,CTAGATTATCGTCCAAAAGTG,1.68
16,CTAGTGACTCAGAAAATTCAA,1.65
17,CTAGTTGGGAAAACAAACTTC,2.94
18,CTATATCACCGCCGACAAGCA,0.806
19,CTATCATCCTCAAGGACATTA,7.02
20,CTATCCTACGTTTAAATATCT,0.651
21,CTATGAATCAATAGAAGAAGC,0.594
22,CTATTATATATGTGTATGCAT,1.19
23,CTATTGCTGGAGTCATGACAC,0.843

row,Sequence,fold depletion of shRNA
1,CTCAAAAAAGCCAATCTTTGT,1.43
2,CTCAAAACTACCTACTTCTTT,1.81
3,CTCAAAGACCTTTGCACAGTT,1.77
4,CTCAAGGACATTACTAGTGAC,1
5,CTCACCAGCAACACCAAGTGC,0.735
6,CTCAGAAAATTCAAACTTCAG,1.04
7,CTCAGAACTTGGAAGGCCTGC,2.49
8,CTCAGAGAAAGTAGCTTTGTG,3.45
9,CTCAGGCATCAAAAGCATTTT,1.98
10,CTCATCTTAATGGCCTAATGC,1.5
11,CTCATGAATCTCCAACTTTAA,0.844
12,CTCATGATTCTGCCTCCAAGG,22.3
13,CTCCAACTTTAAATCCTGAAA,0.687
14,CTCCAAGGATGTTTAAAATCT,0.822
15,CTCCAAGGGATTGGAATTGAG,1.14
16,CTCCAGGTGAAAGGAAAGCTA,1.46
17,CTCCATTTTTGCCTTGGTGCT,6.59
18,CTCCTACCTCTGGTTCTTACG,2.46
19,CTCCTTACTACTATCCTACGT,1.15
20,CTCGCCGACCACTACCAGCAG,0.799
21,CTCGGCATGGACGAGCTGTAC,0.992
22,CTCGTGACCACCCTGGGCTAC,0.962
23,CTCTAAATTACCTCTGATAAT,1.12

row,Sequence,fold depletion of shRNA
1,CTCTACCTCAAAGACCTTTGC,3.53
2,CTCTACTGTATGTGAACACTG,3.93
3,CTCTATGAATCAATAGAAGAA,0.609
4,CTCTCAGAGAAAGTAGCTTTG,1.84
5,CTCTCCATTTTTGCCTTGGTG,20.9
6,CTCTCGGCATGGACGAGCTGT,2.12
7,CTCTGAGAAGATCATATTTAT,1.17
8,CTCTGATAATTCTAGAGATTT,0.813
9,CTCTGGCATCTAACATATGAT,4.66
10,CTCTTGCAGAGAAAATTCAGA,0.803
11,CTCTTGTCATACCCCCAAGTT,2.03
12,CTGAAACAGTGGCAATAAATT,2.35
13,CTGAAATATCAGTTACTGAAC,1.03
14,CTGAAGAGCCAACATATTTGT,1.9
15,CTGAAGCTGATCTGCACCACC,1.04
16,CTGAAGGGCATCGACTTCAAG,0.854
17,CTGACATCAACTCCAAGGGAT,2.68
18,CTGACCCTGAAGCTGATCTGC,0.837
19,CTGAGAAGATCATATTTATGT,0.875
20,CTGAGCAAAGACCCCAACGAG,1.26
21,CTGAGCTACCAGTCCGCCCTG,0.978
22,CTGAGTATATGCAATTAGTGT,0.506
23,CTGATAATTCTAGAGATTTTA,0.679
